Consider 29 molecules from the supplement of paper PMC12632987.

B1: GBRAP_43_5762 (protein)
chain: SKELVEGAIDFALLALEEPEISEETKLKAIKAALGLAADEGYFDKEEVLELIRAAGKSLSKEELEKLAAFLKELAKKYPELAETLKEALAILEKAIAAKK
B2: GBRAP_160_4682 (protein)
chain: SEKVEKAKKFIEEEFDEVLSLYDEMTPEQLAAAVRVAFGEIILELEELGLLTEEVEKVILEEEEKIVKTILENPNITKEEFKKLLEEAKKKIVEELEKAE
B3: GBRAP_160_4314 (protein)
chain: MEEIEELKKEIEELVEEAKEMIKGQSAEERRTIARVTLGDILLAVEENPAVSDETEEKVAEIVDAAEARLDANPDLTEEEVKALLEETREKILELLESEL
B4: GBRAP_160_4344 (protein)
chain: SEEKEKLLKFVDEEFEEAIELIKGESIEQRKVIISGTFGEILMELSESPIISDELEDEVREIEDELLEYLDKNPDLSEEEIKELIKEAREKVKEAIEKHT
B5: GBRAP_78_6703 (protein)
chain: KIEELIDEAIELVNKAAKLLVNEKTELANDLLGLLVDASTLLWEAEEKGGDLKLLKEALKKLEEALKLAKKLDIPNKEEIIKLLKEAIEKVKEAIKLKEK
B6: GBRAP_52_6025 (protein)
chain: MAARIQAVVDEALALVKAGDLAAARALLAAAVASMNDEEVRLFVDALAARAAAAAPEDHDAVWTLTELAAAAMEEAGKDEALADDLEARTAAALYEAEQR
B7: GBRAP_52_5866 (protein)
chain: MRERLREALAEALALVKAGDLAAARALAAELVASISEEEAELLIEVAAEYAATLPREDLDAAWTLMEILAEELEAAGFPEELVTLFEGEVGSAIAKVEAA
B8: GBRAP_159_3956 (protein)
chain: MEEVLAALRERLEALGASEAVIRAAVEAVELAFEGEDAGSIAAHLLHMATVLGASTEEILVTLEALPEDLRVEVAELLAEMFEELGDEEMAAALRAFLAA
B9: GBRAP_83_6974 (protein)
chain: KEEIVVAAPADRVEEAVEIAIDLSKNYGYKVTLEVITTPEEKEKVLEAVERLMKEVKDIEIEVILEGATKEEAEELEKRLKEIAKKLGVNAEITVELVEP
B10: GBRAP_11_2809 (protein)
chain: KKEALEKALELAKKAAETVKKLLKEGVDNKELQEEIKKLLEELKKLAEKYLDKGSQKLVEIAEELWKEALEDPENAEEYLKQLEATLRVLAGNILLEIEE
B11: GBRAP_184_5050 (protein)
chain: KIKEEVIEANNLEELKKKLEELKEKMKNFKGELIVHVKLPEFTLEMVEEILNTLKEILDKGYASSITVGLDGKMSEEVVDFALEKADKAGIKVVLALEEE
B12: GBRAP_52_6152 (protein)
chain: AAARAAEAARAFVAAVRAGDEARAEAIMREIAATFDDEEIALFLDEVARLVAGLSPEDRERVVEAVLRFEDIAEAAGHDEELLSYHTARVAAAAYAALQA
B13: GBRAP_160_4199 (protein)
chain: SEKIEKIIKELREETERVIAAIPELSREEVANFAEVEFGSVLMEAVELGVENDEIEDTIADAADEIKKFLAENQNASNEEIAAGIREITEKAIEEIKKIA
B14: GBRAP_137_3633 (protein)
chain: MKVVIETKTYGDVVEIKVTVEDPEKAEEAKELLLDIAHEKGALAVSLEIKEDGTLEAVIWVPKEKAEELIEAIVKAFQTEFGADVTIKDLDTGEVKEYKA
B15: GBRAP_160_4132 (protein)
chain: KEELEALIKEIKETTEEAIELIEGESVENAKVIAKVALGDILLLVDSNEAVSEEVEDKIGEIVDEAEKTLDENPNLSVEEIKKLLKETAEKIVEILEAER
B16: GBRAP_184_5298 (protein)
chain: TVKHVTIEADTAEEAIEQILKLAEEARKAGVKLSLDLILNNVSVEGFRRIAELLKELKEEGIIEDAVIEITDDKSEEEIDEFIKIADEAGVKLVVALSDE
B17: GBRAP_52_5924 (protein)
chain: SSEELKAKAKEILEAALAGDKEKMEAKIKEIAETLSDEEIEGVIAELARLVAELGPEHYDVFAEIMDILEDAVEEAGRDVERVQAAIARGAGLLYDAEQA
B18: GBRAP_11_2831 (protein)
chain: KKEKLKRLAEKAKEVADKLEKLIESGNPTQEELDELLKLAEELLKEVKEYGDESLIKIAEIALEEIKKAKENPETQKEHLQHALAFARVLEGQFLLELEE
B19: GBRAP_80_6752 (protein)
chain: GLAELEKALAELKELDPELGERLREVLERALEAGVPVSDATRLVQALVELAKLDLEKARKLGEEFIKELEEELEAGDLEGARATIIDYTSDALLAVEELE
B20: GBRAP_184_5235 (protein)
chain: KVLEREIEAKNAEELREKLEEVAEEAEKAGAKVRLIIKVEELTKEKAEVIAEMLKKMAAKGLIDLVEVESTTKIEEENIDLLVEAADAAGVRLVLALEEE
B21: GBRAP_160_4311 (protein)
chain: SEELEELKKNLKEIVEEAKKMIEGETAEQRKTIARVTLGDILLEAFENPAISDELEDKIGEIVDAAEAELDANPDLTEEEVKELLEKTLKEILELIDKSE
B22: GBRAP_184_5355 (protein)
chain: TTRDVLIEADTVDEAIAQLRAAADEAAAAGATLNVLIRVPINTVEEARALMAAVAEAAARGVIAGVVGIDGVSNDEAIIDALLAGADAAGVRLVLALDDE
B23: GBRAP_39_5695 (protein)
chain: EKEEEAEDTFSYYEAKGVKYQVEKGLTDEEVEEETRRLAAEAKAAHPELAALIDELERLAREAGELAVIALYGLLLDLKEGKPLEEIREDLELLIAYLKS
B24: GBRAP_160_4618 (protein)
chain: MEKIEELIKYIKEEFEEAKEMIEGQTVEERAAIVDVTFGEIILKAEELEVVSDETLEKIDEIGRETVKTILENPDLTDEEIKKLIEEAEKKIIELVEKDK
B25: GBRAP_83_6878 (protein)
chain: AEEITVAGPASRGAEIADAVIDLTKEEGYTVTVEVLVTPEELADVLALARRLAAAGVNVELIVVGRGITPEQAAALEAELRAIFAAAGVDVTVEVRLEEP
B26: GBRAP_39_5653 (protein)
chain: EEEEENELIFEYLIALASKYQVDKNISEEELIAHGKELLEKMAKEHPEIKELVEKLLELMEKGDLETKEAIVGIALLYEKGEPIEKIKEYLEKFLEYVES
B27: GBRAP_14_3780 (protein)
chain: MEKIEEIIREKAEEIIELLTEIAPEKAEEITEIVEEVVERTIARIKETGNAEEAAEEGRDELLARIAELTADLPAETRARMLAVVAVEFGQAILEIEELL
B28: GBRAP_52_5892 (protein)
chain: KLEEAIKLLEEAIEAMKAGKLEEAEKILKEIVRNFDDETILEAVRELAKKILSKSLEEAEAFYKTMELLAEIWEEEGRDENIASEIEAIAGAALYTVEQK
B29: GBRAP_52_6375 (protein)
chain: AVEEAAKLLREALELIIEGGPEEEVEKLAEEIVKYSEEVIEEAAKLVAEEVLKLSPEEAEKYLEASFKLAEILEEKGLKSEIASLIEAEIGKAAYEVLQK

The full ranking holds about 4,500 sequences; the median of “median log2 fold change of GCK-ALFA target abundance (FLAG IP / Myc IP barcode read proportion)” is about 0.078, and the lowest 2% start at about -0.6. The list shows a part of the results.

This experiment deals with GABARAP, O95166. Kind of experiment: median log2 fold change of GCK-ALFA target abundance (FLAG IP / Myc IP barcode read proportion) (log2 ratio); each designed protein is fused to an ALFA-tag nanobody in HEK293 cells to bring the named protein to FLAG-tagged glucokinase (GCK); Myc marks an untargeted standard; higher = target protein stabilised (more abundant). Particulars: target protein: 3xFLAG-MCP-GCK-ALFA reporter; HEK293 landing pad (RPLP). In a few lines: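 The readout is target abundance, the per-binder median log2 ratio of FLAG to Myc barcode read proportions. It came from HEK293 landing-pad cells carrying a recombined ALFA-nanobody-fused binder library, induced with 2 μg mL^−1 doxycycline and transfected with a plasmid for a FLAG-tagged target and a Myc-tagged standard. After 48 h, lysates were immunoprecipitated with anti-FLAG and anti-Myc, and circular RNA barcodes were reverse transcribed, amplified and sequenced. Each barcode needed a proportion of at least 10^−7 in both replicates and each binder at least 3 barcodes per replicate, a pseudocount of 10^−6 was added, and the replicates were pooled.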
Sequence of GABARAP, O95166 (O95166 whole entry, the tested form may be a part): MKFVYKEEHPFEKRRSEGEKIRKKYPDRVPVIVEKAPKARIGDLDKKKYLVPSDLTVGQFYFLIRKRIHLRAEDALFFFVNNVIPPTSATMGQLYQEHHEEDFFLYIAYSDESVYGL
As for B1, the “median log2 fold change” value is -0.0634.

For the molecule B2, the “median log2 fold change” value is -0.333.

In the case of B3, the “median log2 fold change” value is -0.298.

For the molecule B4, the “median log2 fold change” value is -0.232.

With B5, the “median log2 fold change” value was found to be 0.343.

In the case of B6, the “median log2 fold change” value amounted to 0.19.

Consider B7, for which the “median log2 fold change” value is -0.0175.

With B8, the “median log2 fold change” value is 0.234.

As for B9, the “median log2 fold change” value is -0.00525.

As to B10, the “median log2 fold change” value came out at 0.15.

As to B11, the “median log2 fold change” value worked out at 0.0158.

With B12, the “median log2 fold change” value is 0.0915.

For the molecule B13, the “median log2 fold change” value is -0.137.

Consider B14, for which the “median log2 fold change” value is -0.216.

As to B15, the “median log2 fold change” value is -0.481.

As for B16, the “median log2 fold change” value was -0.0195.

As to B17, the “median log2 fold change” value came to 0.22.

As for B18, the “median log2 fold change” value came out at 0.224.

Take B19: the “median log2 fold change” value is 0.123.

For the molecule B20, the “median log2 fold change” value was -0.333.

As to B21, the “median log2 fold change” value is -0.202.

In the case of B22, the “median log2 fold change” value was -0.11.

Take B23: the “median log2 fold change” value is 0.243.

Consider B24, for which the “median log2 fold change” value is 0.27.

As for B25, the “median log2 fold change” value amounted to 0.0866.

Take B26: the “median log2 fold change” value was -0.308.

On to B27, for which the “median log2 fold change” value was -0.0168.

Turning to B28, the “median log2 fold change” value worked out at 0.127.

Take B29: the “median log2 fold change” value was 0.136.
